# The BET-seq Pho4 binding data (Le et al. 2018)
# The list shows a part of the results. These are noisy estimates, calculated here from bound and input reads.
# Target: T1, Pho4 (S. cerevisiae) (UniProt P07270)
# T1 sequence: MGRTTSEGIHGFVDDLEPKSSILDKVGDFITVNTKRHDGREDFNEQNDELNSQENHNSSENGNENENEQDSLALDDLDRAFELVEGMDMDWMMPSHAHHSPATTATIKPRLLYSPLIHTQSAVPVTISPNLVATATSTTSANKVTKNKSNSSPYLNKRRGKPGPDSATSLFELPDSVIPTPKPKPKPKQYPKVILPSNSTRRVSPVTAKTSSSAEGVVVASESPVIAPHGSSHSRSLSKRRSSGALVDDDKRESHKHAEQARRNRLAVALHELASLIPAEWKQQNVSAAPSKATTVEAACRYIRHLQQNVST
# Assay: relative binding free energy (BET-seq); higher = weaker binding
# Settings: reference: library average
row,Sequence,relative binding free energy
1,GAGAGCACGTGCGGGT,-0.09 kcal/mol
2,AGTAGCACGTGGTGCT,-0.21 kcal/mol
3,AGGTGCACGTGGGTTG,-0.19 kcal/mol
4,AGGAACACGTGAGTTA,0.25 kcal/mol
5,GTCTACACGTGGTTTT,0.1 kcal/mol
6,ACTGTCACGTGGGGAA,-0.05 kcal/mol
7,CTAATCACGTGATGTT,0.2 kcal/mol
8,GTGGGCACGTGGGGCA,-0.21 kcal/mol
9,TTAAACACGTGGAGGT,-0.12 kcal/mol
10,TTGTACACGTGTATCG,0.02 kcal/mol
11,TTTGTCACGTGATCAG,0.1 kcal/mol
12,CACGGCACGTGGGTTT,-0.09 kcal/mol
13,AGAGGCACGTGCAAGG,-0.13 kcal/mol
14,AAGGGCACGTGTTTAA,-0.17 kcal/mol
15,TTCGTCACGTGGGTAA,-0.13 kcal/mol
16,TTATGCACGTGGGGCG,-0.15 kcal/mol
17,CGGGTCACGTGGAGTT,0.15 kcal/mol
18,TTTTACACGTGTCTAT,0.11 kcal/mol
19,GGTATCACGTGTTTTA,0.12 kcal/mol
20,GTGAGCACGTGGGTCT,-0.33 kcal/mol
21,TGGGTCACGTGTCGAT,0.15 kcal/mol
22,GTGTACACGTGATTTG,0.3 kcal/mol
23,TAAGGCACGTGTGCAT,-0.22 kcal/mol
24,GACGTCACGTGTCGTG,0.22 kcal/mol
25,TGCGACACGTGTGGGC,0 kcal/mol

row,Sequence,relative binding free energy
1,GGGGGCACGTGATATT,0 kcal/mol
2,TCAGGCACGTGGTTCG,-0.13 kcal/mol
3,AGGATCACGTGTTGAG,0.23 kcal/mol
4,GAAGGCACGTGGATGT,-0.02 kcal/mol
5,TAGTTCACGTGTAATG,0.43 kcal/mol
6,ATGTGCACGTGATGAT,0.09 kcal/mol
7,ACGTGCACGTGTTGGG,-0.06 kcal/mol
8,AGGGACACGTGTTATG,-0.02 kcal/mol
9,TTTGTCACGTGGTATG,0.03 kcal/mol
10,GTTTTCACGTGGTGGA,0.35 kcal/mol
11,AATGGCACGTGTCGTG,0.03 kcal/mol
12,TTTATCACGTGGCAGA,0.13 kcal/mol
13,TATAACACGTGGAAGG,0.05 kcal/mol
14,TAGTTCACGTGTGTAC,0.31 kcal/mol
15,GGGATCACGTGAGCTG,0.44 kcal/mol
16,TACGGCACGTGCTTGG,-0.23 kcal/mol
17,AGTATCACGTGGATGC,0.1 kcal/mol
18,CTTTGCACGTGGTACG,-0.17 kcal/mol
19,TCGGTCACGTGTATAG,0.11 kcal/mol
20,CGAGGCACGTGGGATT,-0.06 kcal/mol
21,AAGAGCACGTGTATTT,0.04 kcal/mol
22,GTTCTCACGTGATGTT,0.34 kcal/mol
23,GGACTCACGTGGGGGC,-0.06 kcal/mol
24,TATAGCACGTGCAGGT,-0.15 kcal/mol
25,AGGTGCACGTGCAGCG,-0.09 kcal/mol

row,Sequence,relative binding free energy
1,TCTAGCACGTGGGCGG,-0.21 kcal/mol
2,TCTGTCACGTGAGGGG,0.24 kcal/mol
3,ATAGGCACGTGTGGAG,-0.01 kcal/mol
4,GGAGCCACGTGGGTCG,-0.26 kcal/mol
5,TTTTGCACGTGAAAGC,0.17 kcal/mol
6,TCTAGCACGTGTTGGT,-0.08 kcal/mol
7,TCGGGCACGTGATTGA,-0.06 kcal/mol
8,CATTGCACGTGTTAGA,0.08 kcal/mol
9,AAACGCACGTGTAGGT,0.01 kcal/mol
10,AAGACCACGTGTGGTG,-0.05 kcal/mol
11,AGTTTCACGTGTTGGG,0.3 kcal/mol
12,CGTTGCACGTGTGGCG,-0.01 kcal/mol
13,AATGGCACGTGGTGAC,-0.16 kcal/mol
14,TGTAACACGTGAGGAT,0.19 kcal/mol
15,GTTGGCACGTGGTGGG,-0.05 kcal/mol
16,CTATGCACGTGTTTTT,-0.1 kcal/mol
17,CCGGGCACGTGTAGTA,0.08 kcal/mol
18,AATTGCACGTGCAGTG,0.04 kcal/mol
19,TGTCGCACGTGGATTG,0.02 kcal/mol
20,GGGGTCACGTGATGAG,0.32 kcal/mol
21,TGGGGCACGTGTCGTA,-0.09 kcal/mol
22,GGGGCCACGTGTTTGG,-0.1 kcal/mol
23,TGGGCCACGTGCGGAG,0 kcal/mol
24,GAGTTCACGTGGTGAC,0.4 kcal/mol
25,TATTTCACGTGTGCGG,0.21 kcal/mol

row,Sequence,relative binding free energy
1,TGATTCACGTGACTGT,0.18 kcal/mol
2,TGATCCACGTGCTGGG,-0.04 kcal/mol
3,TCGCGCACGTGGGTTG,-0.27 kcal/mol
4,GTGTTCACGTGAAGAG,0.33 kcal/mol
5,ATGCTCACGTGGAAGT,0.3 kcal/mol
6,TATAGCACGTGTGTAA,0.04 kcal/mol
7,CGTTGCACGTGTGTGA,-0.07 kcal/mol
8,TGCGCCACGTGGGTCT,-0.13 kcal/mol
9,CGTGTCACGTGAATTT,0.24 kcal/mol
10,GGGATCACGTGCGAGT,0.08 kcal/mol
11,TGTGTCACGTGGGGTA,-0.04 kcal/mol
12,GTATTCACGTGACTTG,0.28 kcal/mol
13,AGGTGCACGTGTTTAT,0.05 kcal/mol
14,GTAGTCACGTGTCGTG,0.22 kcal/mol
15,TATGTCACGTGACAGT,0.17 kcal/mol
16,GCACTCACGTGGGTGG,0.03 kcal/mol
17,TATTGCACGTGCGGCT,-0.03 kcal/mol
18,CGATTCACGTGAGGGA,0.47 kcal/mol
19,TTATCCACGTGGTGAT,0.01 kcal/mol
20,TTCTTCACGTGTGTTA,0.22 kcal/mol
21,GATGTCACGTGGGTAA,0.01 kcal/mol
22,GTGTTCACGTGGCGGT,0.24 kcal/mol
23,GAGGTCACGTGTCATG,0.13 kcal/mol
24,GTAGGCACGTGAGCGA,0.04 kcal/mol
25,AGTTGCACGTGGCTTT,-0.19 kcal/mol

row,Sequence,relative binding free energy
1,CTTACCACGTGTGGGG,0 kcal/mol
2,TATGTCACGTGGGATC,-0.08 kcal/mol
3,TCGGGCACGTGGCTTA,-0.06 kcal/mol
4,TTCTACACGTGAGTGG,0.24 kcal/mol
5,TAAGTCACGTGTTGTC,0.28 kcal/mol
6,GGTGTCACGTGTTACA,0.05 kcal/mol
7,ATTTGCACGTGCGGGA,-0.08 kcal/mol
8,AGGGTCACGTGGCCGT,-0.01 kcal/mol
9,GTGTCCACGTGGGGAG,-0.08 kcal/mol
10,CATAACACGTGGGTTG,-0.18 kcal/mol
11,TTAAGCACGTGCCGGT,-0.24 kcal/mol
12,TTAAACACGTGGTAAT,0.06 kcal/mol
13,TGACTCACGTGAGGTG,0.12 kcal/mol
14,GATTACACGTGGTAGG,0.15 kcal/mol
15,TGGTTCACGTGTTAAA,0.3 kcal/mol
16,TTTAGCACGTGGGTCA,-0.19 kcal/mol
17,TTTCGCACGTGTTAAT,0.05 kcal/mol
18,AGGTACACGTGCGTAG,-0.06 kcal/mol
19,GAAGTCACGTGTGCTT,0.13 kcal/mol
20,GTTTTCACGTGCGATG,0.26 kcal/mol
21,AGTATCACGTGGAAGT,0.13 kcal/mol
22,TGGTCCACGTGTTAAT,0.11 kcal/mol
23,GGCAACACGTGGGAGG,-0.06 kcal/mol
24,TGCATCACGTGAGTTG,0.14 kcal/mol
25,TCTTGCACGTGGCGTG,-0.16 kcal/mol

row,Sequence,relative binding free energy
1,AGTGTCACGTGCGTCG,-0.05 kcal/mol
2,TTCTGCACGTGGGTGA,-0.14 kcal/mol
3,TTGGTCACGTGATGAT,0.2 kcal/mol
4,TAGTGCACGTGATGGG,0.11 kcal/mol
5,GCGGGCACGTGTGAAG,0.15 kcal/mol
6,AAGGTCACGTGGTGGC,0.15 kcal/mol
7,TGGGACACGTGTCATA,0.08 kcal/mol
8,ATTTTCACGTGGGGCT,0.2 kcal/mol
9,CGAGGCACGTGGGTTA,-0.21 kcal/mol
10,TCTAACACGTGTATGT,-0.08 kcal/mol
11,TCTGGCACGTGAGTGT,0.18 kcal/mol
12,TTGGCCACGTGTGTGG,0.02 kcal/mol
13,GTGGACACGTGGCGGA,0.01 kcal/mol
14,TCGTGCACGTGTCAGG,-0.1 kcal/mol
15,TTATGCACGTGTAGTG,0 kcal/mol
16,GCGTCCACGTGGGTGG,-0.1 kcal/mol
17,TATGTCACGTGGACGT,0.17 kcal/mol
18,GCAGGCACGTGTAGTG,-0.03 kcal/mol
19,CATGGCACGTGTTGAG,-0.1 kcal/mol
20,ATCAGCACGTGTTTGG,-0.21 kcal/mol
21,GGGAGCACGTGATGTC,0.05 kcal/mol
